Screen size: about 48,000 compounds; about 450 (0.94%) were called active. Roughly 19% stayed inconclusive and do not appear here. The call rests on the fitted dose curve; in most records, active means well fitted inhibition curve with a large enough effect; inconclusive means small, poorly fitted or top-dose-only effect; inactive means no such curve, though single readings can be large or run the other way. The list shows a part of the results.

The experiment is described as follows: Primary qHTS for Identification of Small Molecule Inhibitors of Huntingtin Promoter Activity. Further: nearly all actives have a fitted effect of over 50% in size. Conditions: HEK293 HTT promoter firefly luciferase reporter (activity 0% = vehicle and -100% = no light), 24 h; series mostly up to 57.5 µM; activity change, negative = inhibition: at the top concentration. In a few lines:
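HEK293 Fluc reporter, 2,500 cells/well, 24 h pre-culture; cpds up to 57.5 uM final, 24 h 37 degrees C; Dual-Glo, 10 min RT; normalized vehicle = 0%, zero RLU = -100%.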
Regarding `COc1ccc(S(=O)(=O)N2CCC(n3c(C(F)(F)F)nc4cccnc43)CC2)cc1OC`, the “activity change, negative = inhibition” value is inactive: -35.6%. As for `CCOc1ccccc1-n1cc2c(c1-c1ccc(OC)cc1)c(=O)n(C)c(=O)n2C`, the figure is inactive: -4.18%; as for `Cc1ccc(N(C)C(=O)C2CCN(S(=O)(=O)c3ccc4c(c3)CCCN4C(=O)C3CCC3)CC2)cc1`, inactive: -4.57%; as for `COC(=O)c1ccc(NC(=O)CN2CCN(c3ccc(Cl)cc3)CC2)cc1`, inactive: -15.1%.

On to `O=C1CC(c2ccccc2)Cc2[nH]c(=O)c(C(=O)Nc3cccc(Cl)c3)cc21` (stereo not drawn), for which the “activity change, negative = inhibition” value is inactive: -5.47%. In the case of `COc1ccc(NC(=O)c2cn(-c3ccccc3)nc2-c2ccc(C)cc2)cc1`, the “activity change, negative = inhibition” value was inactive: 5.75%.

On to `CN1CCCC(n2nc(Cc3ccc(Cl)cc3)c3ccccc3c2=O)CC1` (stereo not drawn), for which the activity change, negative = inhibition result is “inactive”. Consider `O=C(CSc1nc2ccccc2nc1Cc1ccccc1)Nc1ccc2c(c1)OCO2`, for which the “activity change, negative = inhibition” value was inactive: -6.29%.

As for `CCCOC(=O)CSc1nnc2ccc3ccccc3n12`, the “activity change, negative = inhibition” value is inactive: -2.28%. Consider `COc1ccc(NC(=O)c2ccc3c(c2)CCN3S(=O)(=O)c2ccc(C)cc2)cc1Cl`, for which the “activity change, negative = inhibition” value is inactive: -9.23%.

As to `CCOC(=O)c1cccc(NC(=O)C(C)n2c(C)c3cnn(-c4ccccc4)c(=O)c3c2C)c1` (stereo not drawn), the “activity change, negative = inhibition” value is inactive: -29.1%.

For the molecule `Cc1ccc(NC(=O)CN(C)S(=O)(=O)c2ccc3nc(C)sc3c2)c(C)c1`, the “activity change, negative = inhibition” value is inactive: -26.8%.

Consider `CC(C)NS(=O)(=O)c1ccc2nc(NC(=O)c3cncc(Br)c3)sc2c1`, for which the “activity change, negative = inhibition” value is inactive: -24.4%. The figure for `COc1ccc(Cl)cc1NC(=O)CCc1c(C)nc2c(c1C)c(=O)n(C)c(=O)n2C` is inactive: -8.23%. Turning to `FC(F)(F)C(F)(F)C(F)(F)C(F)(F)C(F)(F)C(F)(F)C(F)(F)C(F)(F)Br`, the “activity change, negative = inhibition” value was inactive: 0.0175%. As for `CCCSCCCNC(=O)c1ccc(Cn2c(=O)c3cccn3c3cccnc32)cc1`, the “activity change, negative = inhibition” value is inactive: -4.15%. Regarding `CCC(=O)N1CCc2cc(S(=O)(=O)CCC(=O)N3CCN(c4ccccc4F)CC3)ccc21`, the “activity change, negative = inhibition” value is inactive: -3.34%. As for `Cc1cc2oc(C(=O)Nc3nc(-c4ccccc4)ns3)c(C)c2cc1Cl`, the figure is inactive: 5.43%; as for `CCOc1ccc(CNC(=O)c2sc3nc(C)cc(C)c3c2-n2cccc2)cc1`, inactive: 2.65%. The figure for `Cc1ccc(NC(=O)CN2C(=O)CCc3cc(S(=O)(=O)N4CCOCC4)ccc32)c(C)c1` is inactive: -12.2%; for `CN1CCN(C(CNC(=O)C(=O)Nc2ccc(F)cc2)c2cccnc2)CC1` (stereo not drawn) it is inactive: 33%.

With `CCC(CC)C(=O)N1CCc2cc(OC)c(OC)cc2C1COc1ccccc1OC` (stereo not drawn), the “activity change, negative = inhibition” value is inactive: -19.8%. The figure for `Cc1ccc(C)c(Cn2nnc(C(=O)NCc3ccccc3)c2N)c1` is inactive: -23.4%; for `CCN(c1ccccc1)c1cc(NC)[n+](C)c(C)n1` it is inactive: -1.72%. The entry for `CN1CCN(CCCN2c3ccccc3Sc3ccc(Cl)cc32)CC1` is “inactive”; for `CCOc1ccc(NC(=O)CSc2nnc(NC(=O)Nc3ccccc3)s2)cc1` it is inactive: -9.17%. The figure for `CCOc1ccc(-c2nonc2NC(=O)COc2ccc(C)c(C)c2)cc1OCC` is inactive: -5.37%; for `O=C(c1ccc2c(c1)N(Cc1cccc(Cl)c1)C(=O)c1ccccc1S2(=O)=O)N1CCN(c2cccc(C(F)(F)F)c2)CC1` it is inactive: -20.4%. `CCOc1ccc(-c2cnc(NCc3cccc(Cl)c3)n2C)cc1`: the “activity change, negative = inhibition” value is inactive: -2.87%. As for `COc1ccc(C(=O)CCC(=O)Nc2cccc(C(C)=O)c2)cc1`, the figure is inactive: 10.9%; as for `COc1ccc(CCNC(=O)Cn2c(=O)c3cccn3c3ccc(F)cc32)cc1OC`, inactive: -4.92%; as for `Cc1ccc(Cn2c(=O)n(Cc3ccc(Cl)cc3)c(=O)c3cccnc32)cc1`, inactive: -6.94%. As for `Cc1ccccc1-n1nc(CO)c(C(=O)NCCc2ccccc2)n1`, the figure is inactive: -7.44%; as for `COc1cccc(NC(=O)C(=O)NCC(c2cccnc2)N2CCN(c3ccccc3)CC2)c1` (stereo not drawn), inactive: -4.69%; as for `CC1CCc2c(sc(NC(=O)c3ccccc3)c2C(=O)Nc2ccccc2)C1` (stereo not drawn), inactive: -5.35%.

As for `CCOC(=O)CSc1nc2ccc(NC(=O)COc3ccccc3)cc2s1`, the “activity change, negative = inhibition” value was inactive: 0.524%.

With `Cc1cccc(CSc2cn(CC(=O)N3CCCCCC3)c3ccccc23)c1`, the “activity change, negative = inhibition” value was inactive: 5.76%. As for `O=C(NCc1ccc(Cl)cc1)c1cnc2sc(N3CCCCCC3)nn2c1=O`, the figure is inactive: 5.53%; as for `COc1ccc(Cl)cc1NC(=O)C1CCN(c2ncnc3c2nc2n3CCCCC2)CC1`, inactive: -11.7%. The figure for `CCN(CC)c1ccc(NC(=O)c2cnn3c(C(F)F)cc(-c4ccccc4)nc23)cc1` is inactive: 1.6%. The figure for `O=C(CCC(=O)N1Cc2ccccc2Oc2ncccc21)NCc1ccccc1Cl` is inactive: -13.4%; for `COc1ccc(C(c2c(O)cc(C)n(Cc3ccco3)c2=O)N2CCN(c3ccccc3)CC2)cc1` (stereo not drawn) it is inactive: -11.3%; for `Cc1cccc(CC(=O)NC2CC(=O)N(c3cccc(F)c3)C2)c1` (stereo not drawn) it is inactive: 5.08%. Consider `COc1ccc(OC)c(NC(=O)C2CCN(S(=O)(=O)c3ccc(C)cc3)CC2)c1`, for which the “activity change, negative = inhibition” value was inactive: -14.8%.

Regarding `COCCNC(=O)CSc1nc(-c2ccc(F)cc2)[nH]c1-c1ccc(Cl)cc1`, the “activity change, negative = inhibition” value is inactive: -32.8%.

With `CC(CNC(=O)Cn1ncc2c3ccccc3n(Cc3cccc(Cl)c3)c2c1=O)c1ccccc1` (stereo not drawn), the “activity change, negative = inhibition” value was inactive: -9.31%. As to `Nc1nc(=S)c2[nH]cnc2[nH]1`, the “activity change, negative = inhibition” value is inactive: -23.2%. In the case of `O=C(COc1ccccc1)Nc1ccc(OCc2cc(=O)n3ccsc3n2)cc1`, the “activity change, negative = inhibition” value was inactive: -1.91%.

`CN(C(=O)CSc1nc2ncccc2o1)c1ccc(F)cc1`: the “activity change, negative = inhibition” value is inactive: -0.49%.

As for `CC(C)CCNC(=O)C(=O)Nc1c2c(nn1-c1ccccc1)CS(=O)(=O)C2`, the “activity change, negative = inhibition” value is inactive: -4.21%.

As for `COc1ccccc1N1CCN(S(=O)(=O)c2ccc(-c3cc(C(F)(F)F)on3)s2)CC1`, the “activity change, negative = inhibition” value is inactive: -17.1%.

Consider `CCOC(=O)c1cc(OC(=O)c2cccc(C)c2)n(-c2ccccc2)n1`, for which the “activity change, negative = inhibition” value is inactive: -14.9%. The figure for `COc1cccc(CNc2ncnc3onc(-c4ccc(F)cc4)c23)c1` is inactive: -18.9%; for `COCc1cc(C)nc2sc3c(c12)NC(c1ccc(NC(C)=O)cc1)N(c1ccc(C)cc1)C3=O` (stereo not drawn) it is inactive: 12.4%. As for `O=c1c2ccccc2n(Cc2cccc(Cl)c2)c(=O)n1CCc1ccccc1`, the figure is inactive: -23.4%; as for `CC(=O)NCCc1nc2ccccc2n1CCCCOc1ccc(Cl)cc1`, inactive: -26.5%.

For the molecule `COc1cccc2cc(-c3nc4sc(C(=O)Nc5ccc(F)cc5F)c(C)c4c(=O)[nH]3)c(=O)oc12`, the “activity change, negative = inhibition” value was inactive: 4.42%. As to `C[C@]12CCC3=C4CCC(=O)C=C4CC[C@@H]3[C@H]1CC[C@@]2(O)CC#N`, the “activity change, negative = inhibition” value is inactive: -7.23%. On to `O=C1c2ccccc2C(=O)c2c1ccc(O)c2O`, for which the “activity change, negative = inhibition” value is inactive: 13.6%.

Take `COCc1cc(C)nc2sc3c(=O)n(-c4cc(C)ccc4C)nnc3c12`: the “activity change, negative = inhibition” value is inactive: -2.5%. As for `CCOC(=O)c1ccccc1NC(=O)N1CCN2CCCCC2C1` (stereo not drawn), the figure is inactive: -2.8%; as for `CC(=O)Nc1nonc1-c1nnc(SCC(=O)Nc2cc(C)ccc2C)n1-c1ccccc1`, inactive: -27.5%. The figure for `COc1ccc(CNc2nc3c(S(=O)(=O)c4ccccc4)nnn3c3ccc(Cl)cc23)cc1` is inactive: 10.8%.

(Values after PubChem BioAssay AID1508623 (National Center for Advancing Translational Sciences (NCATS), 2021).)
